Patent publication EP3831849A1 (LamKap Bio beta AG, dated 2021)

What was measured:
[1] = biological target: T1, human CEACAM5 expressed on MKN-45 wt cells (human, UniProt P06731 35-702); experiment: flow cytometry on MKN-45 wt cells (express CEACAM5 and CD47)
T1 construct: MKN-45 cells also express CD47 and CEACAM6; also called CEACAM5 on MKN45
T1 sequence: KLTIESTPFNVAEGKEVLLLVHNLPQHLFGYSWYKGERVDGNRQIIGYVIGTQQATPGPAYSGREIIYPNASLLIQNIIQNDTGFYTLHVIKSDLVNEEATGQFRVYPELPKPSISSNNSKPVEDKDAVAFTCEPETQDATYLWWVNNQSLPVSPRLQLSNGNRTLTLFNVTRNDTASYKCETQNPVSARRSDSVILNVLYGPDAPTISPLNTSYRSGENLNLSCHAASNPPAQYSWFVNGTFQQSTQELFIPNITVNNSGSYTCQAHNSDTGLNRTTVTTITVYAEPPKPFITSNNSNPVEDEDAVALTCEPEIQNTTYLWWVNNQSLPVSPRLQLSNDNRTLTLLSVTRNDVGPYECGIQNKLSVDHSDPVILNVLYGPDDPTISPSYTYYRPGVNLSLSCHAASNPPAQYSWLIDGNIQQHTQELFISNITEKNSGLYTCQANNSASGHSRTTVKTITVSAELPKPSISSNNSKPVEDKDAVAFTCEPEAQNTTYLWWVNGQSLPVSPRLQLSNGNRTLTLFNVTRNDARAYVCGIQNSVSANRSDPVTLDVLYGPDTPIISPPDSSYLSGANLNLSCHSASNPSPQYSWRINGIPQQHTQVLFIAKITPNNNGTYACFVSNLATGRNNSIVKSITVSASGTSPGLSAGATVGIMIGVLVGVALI

[2] = biological target: T2, human CD47 expressed at the surface of MKN45 cells (human, UniProt Q08722); experiment: inhibition of SIRPα mouseFc binding to CD47 on MKN45 cells; imaging (CX5)
T2 construct: whole, on cells; also called IAP
T2 sequence (Q08722 19-323): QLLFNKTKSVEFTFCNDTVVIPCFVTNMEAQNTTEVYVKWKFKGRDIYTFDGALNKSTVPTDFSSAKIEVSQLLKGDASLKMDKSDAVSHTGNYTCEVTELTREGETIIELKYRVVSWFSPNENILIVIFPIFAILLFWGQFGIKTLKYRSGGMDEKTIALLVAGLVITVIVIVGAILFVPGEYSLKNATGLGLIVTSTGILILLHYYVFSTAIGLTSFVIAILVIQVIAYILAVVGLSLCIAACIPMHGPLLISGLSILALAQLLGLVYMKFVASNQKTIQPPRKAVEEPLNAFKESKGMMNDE

B1: K2AC45 (bispecific antibody, human IgG1, kappa, lambda)
heavy: [here about 120 residues without letters][here about 100 residues without letters][here human IgG1 Fc without letters]
light 1: QSVLTQPPSASGTPGQRVTISCSGSSSNIVGVGVNWYQQLPGTAPKLLIYSYNKRPSGVPDRFSGSKSGTSASLAISGLQSEDEADYYCAAYDADMIVPAPVFGGGTKLTVLGQPKAAPSVTLFPPSSEELQANKATLVCLISDFYPGAVTVAWKADSSPVKAGVETTTPSKQSNNKYAASSYLSLTPEQWKSHRSYSCQVTHEGSTVEKTVAPTECS
light 2: DIQMTQSPSSLSASVGDRVTITCRASQSISSYLNWYQQKPGKAPKLLIYAASSLQSGVPSRFSGSGSGTDFTLTISSLQPEDFATYYCQQMHPRAPKTFGQGTKVEIKRTVAAPSVFIFPPSDEQLKSGTASVVCLLNNFYPREAKVQWKVDNALQSGNSQESVTEQDSKDSTYSLSSTLTLSKADYEKHKVYACEVTHQGLSSPVTKSFNRGEC
notes: 6 is full length
For B1, the EC50 [1] was 256 nM and the “Emax (MFI)” value [1] was 1.65e+06 MFI.

B2: K2AC44 (bispecific antibody, human IgG1, kappa, lambda)
heavy: [here about 120 residues without letters][here about 100 residues without letters][here human IgG1 Fc without letters]
light 1: QSVLTQPPSASGTPGQRVTISCSGSSSNIVGVGVNWYQQLPGTAPKLLIYSYNKRPSGVPDRFSGSKSGTSASLAISGLQSEDEADYYCAAYDFLPVLPAPVFGGGTKLTVLGQPKAAPSVTLFPPSSEELQANKATLVCLISDFYPGAVTVAWKADSSPVKAGVETTTPSKQSNNKYAASSYLSLTPEQWKSHRSYSCQVTHEGSTVEKTVAPTECS
light 2: DIQMTQSPSSLSASVGDRVTITCRASQSISSYLNWYQQKPGKAPKLLIYAASSLQSGVPSRFSGSGSGTDFTLTISSLQPEDFATYYCQQMHPRAPKTFGQGTKVEIKRTVAAPSVFIFPPSDEQLKSGTASVVCLLNNFYPREAKVQWKVDNALQSGNSQESVTEQDSKDSTYSLSSTLTLSKADYEKHKVYACEVTHQGLSSPVTKSFNRGEC
notes: 6 is full length
B2 was tested, and the EC50 [1] was 140 nM, the “Emax (MFI)” value [1] was 1.62e+06 MFI and the IC50 [2] was 3.3 nM.

B3: K2AC46 (bispecific antibody, human IgG1, kappa, lambda)
heavy: [here about 120 residues without letters][here about 100 residues without letters][here human IgG1 Fc without letters]
light 1: QSVLTQPPSASGTPGQRVTISCSGSSSNIVGVGVNWYQQLPGTAPKLLIYSYNKRPSGVPDRFSGSKSGTSASLAISGLQSEDEADYYCAAYDFSLLLPAPVFGGGTKLTVLGQPKAAPSVTLFPPSSEELQANKATLVCLISDFYPGAVTVAWKADSSPVKAGVETTTPSKQSNNKYAASSYLSLTPEQWKSHRSYSCQVTHEGSTVEKTVAPTECS
light 2: DIQMTQSPSSLSASVGDRVTITCRASQSISSYLNWYQQKPGKAPKLLIYAASSLQSGVPSRFSGSGSGTDFTLTISSLQPEDFATYYCQQMHPRAPKTFGQGTKVEIKRTVAAPSVFIFPPSDEQLKSGTASVVCLLNNFYPREAKVQWKVDNALQSGNSQESVTEQDSKDSTYSLSSTLTLSKADYEKHKVYACEVTHQGLSSPVTKSFNRGEC
notes: 6 is full length
B3 was tested, and the EC50 [1] was 243 nM, the “Emax (MFI)” value [1] was 1.14e+06 MFI and the IC50 [2] was 7.9 nM.

B4: K2AC47 (bispecific antibody, human IgG1, kappa, lambda)
heavy: [here about 120 residues without letters][here about 100 residues without letters][here human IgG1 Fc without letters]
light 1: QSVLTQPPSASGTPGQRVTISCSGSSSNINGVGVNWYQQLPGTAPKLLIYGFNSRPSGVPDRFSGSKSGTSASLAISGLQSEDEADYYCAAYDMSTYVPAPVFGGGTKLTVLGQPKAAPSVTLFPPSSEELQANKATLVCLISDFYPGAVTVAWKADSSPVKAGVETTTPSKQSNNKYAASSYLSLTPEQWKSHRSYSCQVTHEGSTVEKTVAPTECS
light 2: DIQMTQSPSSLSASVGDRVTITCRASQSISSYLNWYQQKPGKAPKLLIYAASSLQSGVPSRFSGSGSGTDFTLTISSLQPEDFATYYCQQMHPRAPKTFGQGTKVEIKRTVAAPSVFIFPPSDEQLKSGTASVVCLLNNFYPREAKVQWKVDNALQSGNSQESVTEQDSKDSTYSLSSTLTLSKADYEKHKVYACEVTHQGLSSPVTKSFNRGEC
notes: 6 is full length
With B4 the EC50 [1] was 11 nM and the “Emax (MFI)” value [1] was 2.27e+06 MFI.

B5: K2AC48 (bispecific antibody, human IgG1, kappa, lambda)
heavy: [here about 120 residues without letters][here about 100 residues without letters][here human IgG1 Fc without letters]
light 1: QSVLTQPPSASGTPGQRVTISCSGSSSNINGVGVNWYQQLPGTAPKLLIYEFNKRPSGVPDRFSGSKSGTSASLAISGLQSEDEADYYCAAYDAARYVPAPVFGGGTKLTVLGQPKAAPSVTLFPPSSEELQANKATLVCLISDFYPGAVTVAWKADSSPVKAGVETTTPSKQSNNKYAASSYLSLTPEQWKSHRSYSCQVTHEGSTVEKTVAPTECS
light 2: DIQMTQSPSSLSASVGDRVTITCRASQSISSYLNWYQQKPGKAPKLLIYAASSLQSGVPSRFSGSGSGTDFTLTISSLQPEDFATYYCQQMHPRAPKTFGQGTKVEIKRTVAAPSVFIFPPSDEQLKSGTASVVCLLNNFYPREAKVQWKVDNALQSGNSQESVTEQDSKDSTYSLSSTLTLSKADYEKHKVYACEVTHQGLSSPVTKSFNRGEC
notes: 6 is full length
With B5 the EC50 [1] was 201 nM, the “Emax (MFI)” value [1] was 2.19e+06 MFI and the IC50 [2] was 4.4 nM.
